From PubChem BioAssay AID504332 (National Center for Advancing Translational Sciences (NCATS), 2011)
Hit rate of the full screen: of about 350,000 compounds, about 31,000 (8.9%) were called active. Inconclusive results, whose numbers are uncertain, are shown with a selection of clear calls. The call rests on the fitted dose curve; in most records, active means well fitted inhibition curve with a large enough effect; inconclusive means small, poorly fitted or top-dose-only effect; inactive means no such curve, though single readings can be large or run the other way. Where the call is inconclusive, the potency comes from a doubtful curve fit. Some structures have more than one record in an assay (separate samples or runs), and their calls can disagree.
Further: nearly all actives have a fitted effect of over 75% in size.
On the % scale 0 is the no-effect control and ±100 the full control effect; potency means the concentration at half of the fitted maximal effect; tags describe the fitted curve by direction and shape.

These compounds were tested against Histone-lysine N-methyltransferase EHMT2 (Homo sapiens) (UniProt Q96KQ7) (assay: qHTS Assay for Inhibitors of Histone Lysine Methyltransferase G9a). Conditions: G9a H3K9 monomethylation, AlphaScreen, 2 h; activity, negative = inhibition: at 59 µM (top of the series) unless noted.
Sequence of UniProt Q96KQ7 (Q96KQ7 whole entry, looked up): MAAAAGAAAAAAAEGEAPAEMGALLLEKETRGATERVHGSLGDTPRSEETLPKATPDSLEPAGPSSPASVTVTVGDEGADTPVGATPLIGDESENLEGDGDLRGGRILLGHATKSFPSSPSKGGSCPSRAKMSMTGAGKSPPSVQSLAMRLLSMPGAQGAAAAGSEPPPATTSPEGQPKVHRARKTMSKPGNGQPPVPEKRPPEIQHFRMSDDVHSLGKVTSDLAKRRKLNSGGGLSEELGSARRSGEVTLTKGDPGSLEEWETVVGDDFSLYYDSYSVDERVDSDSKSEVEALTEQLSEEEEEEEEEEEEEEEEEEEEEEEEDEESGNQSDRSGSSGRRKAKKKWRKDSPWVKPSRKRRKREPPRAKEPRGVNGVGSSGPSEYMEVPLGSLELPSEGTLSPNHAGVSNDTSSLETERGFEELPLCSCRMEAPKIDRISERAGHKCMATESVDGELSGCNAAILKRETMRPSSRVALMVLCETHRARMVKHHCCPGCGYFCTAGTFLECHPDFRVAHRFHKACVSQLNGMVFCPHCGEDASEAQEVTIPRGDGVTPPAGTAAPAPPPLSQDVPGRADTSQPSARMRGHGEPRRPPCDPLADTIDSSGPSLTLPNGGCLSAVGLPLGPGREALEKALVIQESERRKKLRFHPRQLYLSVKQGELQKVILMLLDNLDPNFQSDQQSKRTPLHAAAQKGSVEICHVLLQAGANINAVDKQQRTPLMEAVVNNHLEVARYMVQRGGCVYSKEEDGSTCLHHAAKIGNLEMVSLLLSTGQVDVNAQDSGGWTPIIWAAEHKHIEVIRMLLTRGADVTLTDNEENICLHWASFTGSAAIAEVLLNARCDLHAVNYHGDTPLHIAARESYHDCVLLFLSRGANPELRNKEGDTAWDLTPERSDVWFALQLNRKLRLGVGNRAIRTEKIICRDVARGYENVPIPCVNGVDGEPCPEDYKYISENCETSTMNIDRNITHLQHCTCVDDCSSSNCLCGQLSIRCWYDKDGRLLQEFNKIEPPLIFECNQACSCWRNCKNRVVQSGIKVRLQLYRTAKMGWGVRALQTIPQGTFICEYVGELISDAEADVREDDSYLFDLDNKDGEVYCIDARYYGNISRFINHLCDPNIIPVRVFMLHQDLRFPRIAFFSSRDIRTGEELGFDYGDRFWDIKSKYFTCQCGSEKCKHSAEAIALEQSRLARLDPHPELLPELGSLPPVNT
In short: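 Enzyme 20 nM + cpd, 15 min RT; add b-H3K9 pep 500 nM / SAM 20 uM; 2 h RT; anti-H3K9me1 Ab 0.5 ug/mL + SA donor / anti-rabbit acceptor beads 20 ug/mL each, 10 min; AlphaScreen read.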
In the case of CC(C)Sc1ncc(Cl)c(C(=O)Nc2nc3ccc(S(C)(=O)=O)cc3s2)n1, the “activity, negative = inhibition” value is reported as inactive: 54.2%.
With Cc1c(N(C)S(=O)(=O)c2cc(C(=O)Nc3ccccn3)ccc2Cl)c(=O)n(-c2ccccc2)n1C the Potency was inconclusive: 70.8 µM [inhibitor, partial curve, poor fit].
For OCCN(Cc1ccccc1)Cc1ccccc1F, the Potency was active: 2.51 µM.
In the case of CN(C)CCCc1cc(C(=O)Nc2ccc(-c3ccncc3)cc2)ccc1O, the Potency is reported as active: 25.1 µM.
Cc1cc(C)c(C#N)c(SCC(=O)Nc2ccc(S(=O)(=O)Nc3ncccn3)cc2)n1 was tested, and the Potency was inconclusive: 79.4 µM [inhibitor, partial curve].
Cc1ccc(CNC(=O)c2ccc(S(=O)(=O)N3CCCCC3)cc2)cc1 was tested, and the “activity, negative = inhibition” value was inactive: -6.32% [at 102 µM].
With O=C(CCN1C(=O)c2ccccc2C1=O)Nc1ccc(-c2nc3ccccc3o2)cc1 the Potency was inconclusive: 14.1 µM [inhibitor, partial curve, poor fit].
With O=C(c1ccccc1)c1coc2ccc(O)c(CN3CCOCC3)c12 the “activity, negative = inhibition” value was inactive: 27%.
Cc1ccc(-c2nc3cc(Cl)ccc3o2)cc1NC(=O)c1cc2ccccc2o1 was tested, and the “activity, negative = inhibition” value was inactive: -3.51%.
Cc1cc(C)cc(NS(=O)(=O)c2ccc(-c3cc(C)no3)s2)c1 was tested, and the “activity, negative = inhibition” value was inactive: -5.96%.
For C=CCN(C(=O)CSc1nc2ccsc2c(=O)n1Cc1ccccn1)c1ccccc1, the “activity, negative = inhibition” value was inactive: 2.84% [at 102 µM].
For CCCCn1c(N)c(N(CCOC)C(=O)C2CCN(S(=O)(=O)c3ccc(C)cc3C)CC2)c(=O)[nH]c1=O, the Potency was inconclusive: 89.1 µM [inhibitor, single point].
O=C(CSc1nnc(CNC(=O)c2ccc(F)cc2)o1)NCc1ccc2c(c1)OCO2 was tested, and the Potency was inconclusive: 10 µM [inhibitor, partial curve, poor fit].
With Cc1ccc(OCCN2C(=O)C(=O)c3cc(C)ccc32)cc1 the Potency was active: 25.1 µM.
In the case of CC(C)Oc1ccc(C(=O)O)cc1, the activity, negative = inhibition is reported as inactive: 12.7% [at 2.33 µM].
With CCN(CC)S(=O)(=O)c1ccc(N2CCOCC2)c(NC(=O)C(=O)c2c(-c3ccccc3)cc3ccccn23)c1 the Potency was active: 35.5 µM.
COC(=O)CC1=NN(c2ccc(OC)cc2)C(=O)/C1=C\c1ccc(Cl)cc1 was tested, and the Potency was active: 20 µM.
CCC1CCCCN1C(=O)N[C@@H](Cc1ccccc1)C(=O)O (stereo partly specified) was tested, and the Potency was inconclusive: 89.1 µM [inhibitor, single point].
With CC(=O)NS(=O)(=O)c1ccc(NC(=O)/C=C/c2ccccc2)cc1 the Potency was inconclusive: 79.4 µM [inhibitor, single point].
NC(=O)C1CCN(C(=S)c2cccs2)CC1 was tested, and the activity, negative = inhibition was inconclusive: -72.5% [inhibitor].
For Cc1cc(C(=O)CSc2cccc[n+]2[O-])c(C)n1-c1ccccc1, the Potency was inconclusive: 56.2 µM [inhibitor, partial curve, poor fit].
For O=C(O)CSc1nc2ccccc2c(=O)[nH]1, the Potency was inconclusive: 35.5 µM [inhibitor, single point].
In the case of CC(=O)c1ccc2c3c(cccc13)CC2, the “activity, negative = inhibition” value is reported as inactive: 21.6%.
With O=C(c1ccc(=O)[nH]c1)N(Cc1ccco1)C1(C(=O)NC2CCCCC2)CCCCC1 the Potency was inconclusive: 79.4 µM [inhibitor, single point].
With COCCN(CCOC)S(=O)(=O)c1ccc(C(=O)NCCCN2CCOCC2)cc1 the Potency was inconclusive: 56.2 µM [inhibitor, partial curve, poor fit].
With COc1cc(-c2cc(C(=O)Nc3ccc(S(N)(=O)=O)cc3)c3ccccc3n2)cc(OC)c1OC the “activity, negative = inhibition” value was inactive: -47.1% [at 102 µM].
For CCOC(=O)C1CCN(c2c([N+](=O)[O-])c(C(Cl)Cl)nn2-c2ccccc2)CC1, the Potency was inconclusive: 31.6 µM [inhibitor, partial curve, poor fit].
In the case of CCN(Cc1ccccc1)c1ccc(/C=N/NS(=O)(=O)c2ccc(C)c([N+](=O)[O-])c2)cc1, the Potency is reported as active: 8.91 µM.
In the case of CC(C)n1c(S(=O)(=O)O)nc2ccccc21, the Potency is reported as active: 44.7 µM.
In the case of CC(C)Cc1nn2c(=O)cc(COC(=O)c3cccc(NC(=O)c4cccs4)c3)nc2s1, the activity, negative = inhibition is reported as inactive: -2.95% [at 12.7 µM].
In the case of Cc1csc(=Nc2ccc(S(=O)(=O)N3CCOCC3)cc2)n1Cc1ccco1, the Potency is reported as inconclusive: 39.8 µM [inhibitor, single point].
With CN(C)S(=O)(=O)c1ccc(Cl)c(NC(=O)COC(=O)/C=C/c2ccco2)c1 the Potency was inconclusive: 44.7 µM [inhibitor, partial curve, poor fit].
COc1cccc(CNC(=O)CSc2cc(C)[nH]c(=O)n2)c1 was tested, and the “activity, negative = inhibition” value was inactive: -3%.
For CCOC(=O)C1(CCOc2ccccc2)CCN(Cc2cccc3nonc23)CC1, the “activity, negative = inhibition” value was inactive: 98.7% [at 102 µM].
In the case of Cn1c(=O)n(Cc2ccccc2Cl)c(=O)c2c1nc1n2CCN1c1ccccc1, the “activity, negative = inhibition” value is reported as inactive: -32.7%.
With COC1=CCC2([N+](=O)[O-])CN(CCO)CC1([N+](=O)[O-])C2 (stereo unspecified) the Potency was inconclusive: 3.98 µM [inhibitor, full curve, poor fit].
With COc1cc2c(cc1OC)n(CC(=O)Nc1ccc(C)cc1C)c(=O)n1nc(-c3ccccc3)nc21 the “activity, negative = inhibition” value was inactive: 6.25%.
O=c1cc(CSc2nnc(NC3CCCCC3)s2)nc2sccn12 was tested, and the Potency was inconclusive: 50.1 µM [inhibitor, partial curve].
With Cc1ccc(C(=O)Nc2ccc(N3CCN(C)CC3)cc2)cc1C the Potency was active: 70.8 µM.
With Cc1cc(Nc2ccccc2F)n2nc(Cc3ccc(Cl)cc3)nc2n1 the “activity, negative = inhibition” value was inactive: 11.2%.
With COCC(C)N=C1NN=C(c2c[nH]c3ccccc23)CS1 (stereo unspecified) the “activity, negative = inhibition” value was inactive: -3.58%.
For CC1CCCCN1C(=O)Cc1ccc(Cl)cc1 (stereo unspecified), the “activity, negative = inhibition” value was inactive: 9.48%.
For CC(C)(C)C(=O)Nc1ccc(N2CCCC2)cc1, the Potency was inconclusive: 1.78 µM [inhibitor, full curve, poor fit].
In the case of COc1ccc(-c2ccc(SCC(=O)N3c4ccccc4CC3C)nn2)cc1OC (stereo unspecified), the Potency is reported as inconclusive: 50.1 µM [inhibitor, partial curve].
COc1ccccc1N(CC(=O)NC1CCCC1)C(=O)CCC(=O)Nc1cc(C)on1 was tested, and the Potency was inconclusive: 25.1 µM [inhibitor, single point].
In the case of O=C(CCNc1cccc(F)c1)c1cccc([N+](=O)[O-])c1, the Potency is reported as active: 7.08 µM.
C=CCOn1c(=O)c(=O)n(OCc2ccccc2)c2ccccc21 was tested, and the Potency was inconclusive: 79.4 µM [inhibitor, single point].
CCc1nc(C)cn1S(=O)(=O)c1ccc([N+](=O)[O-])cc1 was tested, and the Potency was inconclusive: 50.1 µM [inhibitor, partial curve].
O=C(CSc1ncn[nH]1)Nc1c(Br)cc([N+](=O)[O-])cc1Br was tested, and the Potency was inconclusive: 25.1 µM [inhibitor, single point].
Cc1cc(/C=C2\SC(=O)N(C)C2=O)c(C)n1-c1cccc(C(=O)O)c1 was tested, and the Potency was inconclusive: 50.1 µM [inhibitor, partial curve, poor fit].
For Cc1oc(-c2ccccc2F)nc1CS(=O)CC(=O)NC1CC1 (stereo unspecified), the Potency was inconclusive: 89.1 µM [inhibitor, single point].
For CC(=O)N1CCN(C(=O)C(=O)Nc2c3c(nn2-c2ccc(Cl)cc2)CSC3)CC1, the Potency was inconclusive: 31.6 µM [inhibitor, single point].
COc1cc(NC(=S)N2CCN(C(=O)c3ccco3)CC2)c(OC)cc1Cl was tested, and the Potency was inconclusive: 22.4 µM [inhibitor, single point].
N#C/C(=C/c1cccn1-c1cccc(C(=O)O)c1)c1ccc(Cl)cc1 was tested, and the activity, negative = inhibition was inconclusive: -81.6% [inhibitor].
With COc1ccc(C2=NN(C(=O)COc3ncnc4ccccc34)C(c3ccco3)C2)cc1 (stereo unspecified) the Potency was inconclusive: 79.4 µM [inhibitor, single point].
With COc1ccccc1NC(NC(=O)c1cccnc1)C(Cl)(Cl)Cl (stereo unspecified) the Potency was inconclusive: 39.8 µM [inhibitor, partial curve, poor fit].
Cc1ccc(-c2cc(N)n(Cc3ccc(Cl)cc3)n2)cc1 was tested, and the Potency was inconclusive: 8.91 µM [inhibitor, single point].
For CC(=O)Nc1ccc(N2C(=O)CC(N3CC(C)OC(C)C3)C2=O)cc1 (stereo unspecified), the Potency was active: 22.4 µM.
In the case of CC(=O)N1CCc2c(sc(NC(=O)C3CC3)c2-c2nc3ccccc3s2)C1, the Potency is reported as inconclusive: 50.1 µM [inhibitor, partial curve].
In the case of CCOC(=O)C1CCN(CC(=O)c2c(C)[nH]c3cc(C)ccc23)CC1, the Potency is reported as inconclusive: 79.4 µM [inhibitor, single point].
In the case of CC1CCN(C(=O)CN2c3ccc(Br)cc3-c3ccccc3S2(=O)=O)CC1, the “activity, negative = inhibition” value is reported as inactive: 0.127%.
For CN(C)c1ccc(NC(=O)c2cccc(C(=O)Nc3ccc(N(C)C)cc3)n2)cc1, the Potency was active: 3.16 µM.
For CCCCn1c(CCc2ccccc2)nc2cc3[nH]c(=O)c(C(C)C)nc3cc21, the Potency was inconclusive: 100 µM [inhibitor, single point].
O=C(COc1ccccc1)Nc1c(C(=O)N2CCN(c3ccc(F)cc3)CC2)oc2ccccc12 was tested, and the Potency was inconclusive: 8.91 µM [inhibitor, partial curve, poor fit].
For C/C(=N\NC(=O)Cn1nnc2ccccc21)c1ccco1, the activity, negative = inhibition was inactive: 9.31% [at 0.501 µM].
With COc1ccc(-c2nn(-c3ccccc3)cc2C(=O)N2CCN(S(=O)(=O)c3ccccc3C#N)CC2)cc1 the Potency was inconclusive: 89.1 µM [inhibitor, single point].
In the case of CCn1c(SCC(=O)c2ccc(C)cc2)nnc1-c1ccoc1C, the Potency is reported as active: 50.1 µM.
CNc1nc(N/N=C/c2cc3c(cc2[N+](=O)[O-])OCO3)nc(Nc2ccccc2)n1 was tested, and the “activity, negative = inhibition” value was inactive: -28.7% [at 102 µM].
In the case of Cc1ccccc1N1CC(C(=O)Nc2nnc(SCc3cccnc3)s2)CC1=O (stereo unspecified), the Potency is reported as inconclusive: 89.1 µM [inhibitor, single point].
In the case of Oc1ccc(O)c(Cc2nc3ccccc3s2)c1, the Potency is reported as active: 10 µM.
In the case of Cc1ccc(NC(=O)c2ccc3c(c2)NC(=O)CS3)nc1, the Potency is reported as active: 10 µM.
